Experimental data from the RNAGym collection of RNA variant scans (doi:10.1073/pnas.2313332121).
Variants at the background level are over-represented here.

B1: TPR 5TU (parent)
chain: GGAUCUUCUCGAUCUAACAAAAAAGACAAAUCUGCCACAAAGCUUGAGAGCAUCUUCGGAUGCAGAGGCGGCAGCCUUCGGUGGCGCGAUAGCGCCAACGUUCUCAACUAUGACACGCAAAACGCGUGCUCCGUUGAAUGGAGUUUAUCAUG

Variants of: B1
Assay: polymerase ribozyme fitness, log enrichment relative to wild type (log ratio); higher = more active; in vitro selection for triplet polymerase activity
Outline: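 Both subunits of a heterodimeric triplet polymerase ribozyme were given their own mutant library, built by PCR and transcribed. Each library was annealed with a biotinylated primer, the partner subunit and triplets, incubated frozen at −7 °C, and its extended constructs gel-excised, captured on streptavidin beads and amplified by RT-PCR, all in one round done in triplicate. Fitness is the logarithm of genotype enrichment relative to wild-type enrichment, with replicates averaged by inverse-variance weighting. That logarithm is base 2, and Illumina-sequenced genotypes needed ≥10 input reads and ≥1 read per output.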

A41G C76A G80U C96U C118U G124A and A41G C76U C93G A106G A122G C129A G141U cannot be ordered by “polymerase ribozyme fitness (log ratio)” value: ≤ -4.2 for the first, ≤ -4.2 for the second.

A41G C85A U130G G143U A147G and A41G C87A A121G C123U G140A U146C C149G cannot be ordered by “polymerase ribozyme fitness (log ratio)” value: ≤ -4.2 for the first, ≤ -4.2 for the second.

A41G C93U A107G C116U G140A and A41G G42C C85U C96G cannot be ordered by “polymerase ribozyme fitness (log ratio)” value: ≤ -4.2 for the first, ≤ -4.2 for the second.

A41G G42C G65A G92U A119C C129U and A41G G42C U82G C87G C118A cannot be ordered by “polymerase ribozyme fitness (log ratio)” value: ≤ -4.2 for the first, ≤ -4.2 for the second.

A41G G42U C54G G88U G143A and A41G G46U A89U C93G A120G cannot be ordered by “polymerase ribozyme fitness (log ratio)” value: ≤ -4.2 for the first, ≤ -4.2 for the second.

A41G G50A C54G C79U U90G C93G U109A and A41G G50C C76U C103G C123U cannot be ordered by “polymerase ribozyme fitness (log ratio)” value: ≤ -4.2 for the first, ≤ -4.2 for the second.

A41G G50C C93G C103U C123A U127C and A41G G59A U61A G67A U102A cannot be ordered by “polymerase ribozyme fitness (log ratio)” value: ≤ -4.2 for the first, ≤ -4.2 for the second.

A41G G59C G65A G81C C93U C95U C149G and A41G G59U G68C cannot be ordered by “polymerase ribozyme fitness (log ratio)” value: ≤ -4.2 for the first, ≤ -4.2 for the second.

A41G G59U U82G C85U A91U U111G and A41G G62C U90G C105U C116A U135A cannot be ordered by “polymerase ribozyme fitness (log ratio)” value: ≤ -4.2 for the first, ≤ -4.2 for the second.

A41G G68U C93G U102A C116A A121G C123U A150U and A41G G80A G81A G88A A98G cannot be ordered by “polymerase ribozyme fitness (log ratio)” value: ≤ -4.2 for the first, ≤ -4.2 for the second.

First: A41G G81C U82C
Second: A41G G88U
The “polymerase ribozyme fitness (log ratio)” value of the first is higher: -0.145 for the first, -3.82 for the second.

A41G U44G A60G G67C C93U C105G A106U and A41G U44G C75A G92A U102A U148C cannot be ordered by “polymerase ribozyme fitness (log ratio)” value: ≤ -4.2 for the first, ≤ -4.2 for the second.

A41G U44G C79A A91C and A41G U44G U45A A49C C51U C79U A91U G94C U144G cannot be ordered by “polymerase ribozyme fitness (log ratio)” value: ≤ -4.2 for the first, ≤ -4.2 for the second.

First: A41G U45A C54G G92U
Second: A41G U45A C76G C93G G140U
The “polymerase ribozyme fitness (log ratio)” value of the first is higher: -2.74 for the first, ≤ -4.2 for the second.

A41G U45C G50U C76U G100C A150G and A41G U55A C72G A91G U145G cannot be ordered by “polymerase ribozyme fitness (log ratio)” value: ≤ -4.2 for the first, ≤ -4.2 for the second.

A41G U56A C79U U82G C85U A122G C129A G136U and A41G U77G C85G C96U G124C cannot be ordered by “polymerase ribozyme fitness (log ratio)” value: ≤ -4.2 for the first, ≤ -4.2 for the second.

A41G U78G G88U A119G and A41G U139A G143C cannot be ordered by “polymerase ribozyme fitness (log ratio)” value: ≤ -4.2 for the first, ≤ -4.2 for the second.

First: A41U A47C G59U U61A
Second: A41U A47U C93G
The “polymerase ribozyme fitness (log ratio)” value of the first is lower: ≤ -4.2 for the first, -4.14 for the second.

A41U A47U C95U U102C C114U U148A A150C and A41U A49U G62U U101G U102A C131U U151C cannot be ordered by “polymerase ribozyme fitness (log ratio)” value: ≤ -4.2 for the first, ≤ -4.2 for the second.

A41U A52U C85U G100A A115U U127C G143C and A41U A52U G81U C87U C105G cannot be ordered by “polymerase ribozyme fitness (log ratio)” value: ≤ -4.2 for the first, ≤ -4.2 for the second.

A41U A66C G67A C79G C96U A150U and A41U A73U C85U G117A G126C cannot be ordered by “polymerase ribozyme fitness (log ratio)” value: ≤ -4.2 for the first, ≤ -4.2 for the second.

A41U A122C G126U U130G U146A and A41U C51A C114A G136A U144G cannot be ordered by “polymerase ribozyme fitness (log ratio)” value: ≤ -4.2 for the first, ≤ -4.2 for the second.

A41U C51A G83A G92A G133C and A41U C51A G86C G88C cannot be ordered by “polymerase ribozyme fitness (log ratio)” value: ≤ -4.2 for the first, ≤ -4.2 for the second.

A41U C54A G80U G88C and A41U C54U C72U C99G C123U cannot be ordered by “polymerase ribozyme fitness (log ratio)” value: ≤ -4.2 for the first, ≤ -4.2 for the second.

A41U C54U C85U A91U C114U and A41U C54U C85U U90G A107U G133U U135G cannot be ordered by “polymerase ribozyme fitness (log ratio)” value: ≤ -4.2 for the first, ≤ -4.2 for the second.

A41U C54U G67A A97G U109G and A41U C54U U77A G94U cannot be ordered by “polymerase ribozyme fitness (log ratio)” value: ≤ -4.2 for the first, ≤ -4.2 for the second.

A41U C57A G62A G71A G84A G117A C132A G141A and A41U C57G G126A U144A A147C cannot be ordered by “polymerase ribozyme fitness (log ratio)” value: ≤ -4.2 for the first, ≤ -4.2 for the second.

Going from A41U C57U C85U to A41U C69U C87U, the “polymerase ribozyme fitness (log ratio)” value falls from -1.12 to -2.75.

A41U C72G C85U A110G C123A U139A A142U G143C G152U and A41U C76U C95A U104G cannot be ordered by “polymerase ribozyme fitness (log ratio)” value: ≤ -4.2 for the first, ≤ -4.2 for the second.

First: A41U C79U C96U C123A G152U
Second: A41U C85G G126A
The “polymerase ribozyme fitness (log ratio)” value of the first is lower: ≤ -4.2 for the first, -2.76 for the second.

A41U C85G G126A U148C and A41U C85G U90G G152A cannot be ordered by “polymerase ribozyme fitness (log ratio)” value: ≤ -4.2 for the first, ≤ -4.2 for the second.

A41U C85U C99A C105A C118G A119C and A41U C87A A89U cannot be ordered by “polymerase ribozyme fitness (log ratio)” value: ≤ -4.2 for the first, ≤ -4.2 for the second.

Going from A41U C87U C93U C99G to A41U C95U A98C, the “polymerase ribozyme fitness (log ratio)” value rises from ≤ -4.2 to -1.48.

Compared with A41U C96G U104A C114U A121U G124C G133U, A41U C105G is higher in “polymerase ribozyme fitness (log ratio)” value: ≤ -4.2 for the first, -1.73 for the second.

First: A41U C114A
Second: A41U G42A U44A U53C G62A G67A G86U C95U C116U A120G
The “polymerase ribozyme fitness (log ratio)” value of the first is higher: -4.16 for the first, ≤ -4.2 for the second.

A41U G42U G70C C87A A91G C96G A98G A142C and A41U G46A C75U G88A C99G C108U cannot be ordered by “polymerase ribozyme fitness (log ratio)” value: ≤ -4.2 for the first, ≤ -4.2 for the second.

A41U G50A A52C C93U G100A A119C and A41U G50A C51A G84C A91G G128A cannot be ordered by “polymerase ribozyme fitness (log ratio)” value: ≤ -4.2 for the first, ≤ -4.2 for the second.

A41U G50C U55G C76U A106G A142G and A41U G58C G68C G81A C116G A142C cannot be ordered by “polymerase ribozyme fitness (log ratio)” value: ≤ -4.2 for the first, ≤ -4.2 for the second.

A41U G62C C63A C96A A115U and A41U G62C C95U C96A G112U A142U U146A A150G cannot be ordered by “polymerase ribozyme fitness (log ratio)” value: ≤ -4.2 for the first, ≤ -4.2 for the second.

First: A41U G62C G136U
Second: A41U G65U G141C
The “polymerase ribozyme fitness (log ratio)” value of the first is higher: -3.69 for the first, ≤ -4.2 for the second.

A41U G67C G136U and A41U G68C C76U A91C G140C cannot be ordered by “polymerase ribozyme fitness (log ratio)” value: ≤ -4.2 for the first, ≤ -4.2 for the second.

A41U G68C G92C and A41U G71A G83C G84U U145C A147U cannot be ordered by “polymerase ribozyme fitness (log ratio)” value: ≤ -4.2 for the first, ≤ -4.2 for the second.
